Measured values from a collection of fitness landscapes (doi:10.1016/j.celrep.2020.107928).
In all, about 81,000 sequences were measured (“one-hybrid fitness for binding parS DNA”: median about -0.17, highest 2% from about 0.51 on). The list shows a part of the results.

B1: Caulobacter ParB omega fusion; a variant is named by its letters at X, in order, B8GW30 (parent)
chain: MESVVVGEPGMSEGRRGLGRGLSALLGEVDAAPAQAPGEQLGGSREAPIEILQRNPDQPRRTFREEDLEDLSNSIREKGVLQPILVRPSPDTAGEYQIVAGERAWRAAQRAGLKTVPIMVRELDDLAVLEIGIIENVQRADLNVLEEALSYKVLMEKFERTQENIAQTIGKSXSHVANXMRLLXLPDEVQSYLVSGELTAXHARAIAAAADPVALAKQIIEGGLSVRETEALARKAPNLSAGKSKGGRPPRVKDTDTQALESDLSSVLGLDVSIDHRGSTGTLTITYATLEQLDDLCNRLTRGI

Variants of: B1
Assay: one-hybrid fitness for binding parS DNA (scaled: cognate 1, non-cognate 0); higher = stronger binding
Conditions: with parS DNA site
Summary of the method: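 Caulobacter ParB libraries with four specificity codons randomised were screened by bacterial one-hybrid selection in the E. coli USO strain, using a HIS3 reporter whose site lies 19 bp from the promoter. Selection ran for 48 hours at 37°C on M9 lacking histidine, with 0.1 mM IPTG and 5 mM 3-AT. Plasmids were Illumina-sequenced before and after selection, three replicate libraries were pooled, and variants with under 10 reads were dropped. Fitness is the log change in each variant's read ratio to wild type, rescaled against the cognate and non-cognate sites.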

Row | Variant | one-hybrid fitness for binding parS DNA
1 | EAPT | 0.221
2 | YPDE | ≤ 0.2
3 | QKYG | ≤ 0.2
4 | NSDW | ≤ 0.2
5 | GCTC | ≤ 0.2
6 | PFRC | ≤ 0.2
7 | AYRT | ≤ 0.2
8 | KTMS | ≤ 0.2
9 | KMTH | ≤ 0.2
10 | EELG | ≤ 0.2
11 | LHRP | ≤ 0.2
12 | RYDQ | 0.223
13 | YSTD | ≤ 0.2
14 | TATV | ≤ 0.2
15 | NTVS | ≤ 0.2
16 | NRLA | ≤ 0.2
17 | TLWD | ≤ 0.2
18 | SKDS | ≤ 0.2
19 | AFTF | ≤ 0.2
20 | HSTD | ≤ 0.2
21 | EVLK | ≤ 0.2

Row | Variant | one-hybrid fitness for binding parS DNA
22 | VDCF | ≤ 0.2
23 | RAYT | 0.904
24 | MMLS | ≤ 0.2
25 | YNPT | ≤ 0.2
26 | QSGC | ≤ 0.2
27 | VRKR | ≤ 0.2
28 | LHDL | ≤ 0.2
29 | RYFG | 0.932
30 | QHAG | ≤ 0.2
31 | KHLR | ≤ 0.2
32 | WLDV | ≤ 0.2
33 | GFPW | ≤ 0.2
34 | NASA | ≤ 0.2
35 | ASVP | ≤ 0.2
36 | PQMV | ≤ 0.2
37 | QYRY | ≤ 0.2
38 | QLTV | ≤ 0.2
39 | YQRE | ≤ 0.2
40 | MGVD | ≤ 0.2
41 | HKAL | ≤ 0.2
42 | QLIP | ≤ 0.2

Row | Variant | one-hybrid fitness for binding parS DNA
43 | SKTC | ≤ 0.2
44 | SLCA | ≤ 0.2
45 | DNRR | ≤ 0.2
46 | WSIS | ≤ 0.2
47 | SCTF | ≤ 0.2
48 | ITND | ≤ 0.2
49 | TAEE | ≤ 0.2
50 | QPYE | ≤ 0.2
51 | NCKF | ≤ 0.2
52 | SAKH | ≤ 0.2
53 | TSKP | ≤ 0.2
54 | GPHN | ≤ 0.2
55 | CIRL | ≤ 0.2
56 | LMMV | ≤ 0.2
57 | KRKC | ≤ 0.2
58 | RIQD | ≤ 0.2
59 | DFLC | ≤ 0.2
60 | PRPG | ≤ 0.2
61 | WRRN | ≤ 0.2
62 | SWMS | ≤ 0.2
63 | EPPS | ≤ 0.2

Row | Variant | one-hybrid fitness for binding parS DNA
64 | LHCS | ≤ 0.2
65 | SMTS | ≤ 0.2
66 | YNRN | ≤ 0.2
67 | QQNN | ≤ 0.2
68 | GKTN | ≤ 0.2
69 | TRHH | ≤ 0.2
70 | DTPL | ≤ 0.2
71 | PKAQ | ≤ 0.2
72 | PTPT | ≤ 0.2
73 | WCIS | ≤ 0.2
74 | CTVG | ≤ 0.2
75 | ASII | ≤ 0.2
76 | AVGF | ≤ 0.2
77 | RSAA | 0.554
78 | EGPC | ≤ 0.2
79 | RSRY | 0.55
80 | FHKR | ≤ 0.2
81 | LSDD | ≤ 0.2
82 | TADD | ≤ 0.2
83 | PYST | ≤ 0.2
84 | MDVG | ≤ 0.2
